Laboratory results: paper PMC8488022 (Cell, 2021)

B1: full-length rat TRPV1 ([…]) (receptor)
chain: not shown
B2: minimal functional rat TRPV1 ([…] and […]) (receptor)
chain: not shown

Columns and labels:
[1] = molecular target: the molecule itself; assay: cryo-EM structure
[2] = molecular target: the molecule itself; assay: cryo-EM structure; remark: listed apart in the source

Row | Protein | binding result [1] | stoichiometry N [2]
1 | B1 | binds | 
2 | B2 |  | 4
